According to doi:10.1101/2024.03.19.585761 (bioRxiv, 2024):

Biological target: the molecule itself
Test: SEC-MALS

B1: Recombinant STREP-thioredoxin-HIS (rTRX) (natural protein)
chain: not shown
- stoichiometry N: 2
